Assay results published in publication PMC4242493.
Some of the results follow. The list includes weakly bound sequences.

biological target: MaxL homodimer (UniProt P61244); test: universal protein-binding microarray (PBM); details: PBS-based mixture, 10 nM His-tagged protein dimer, 2% milk, 200 ng/uL BSA, 50 ng/uL salmon testes DNA, 0.02% TX-100; detection with Alexa 488 anti-His …; high values mean tight binding; most listed sequences are background and not binding sites; double strand, one strand shown
Chain of UniProt P61244 (P61244 whole entry): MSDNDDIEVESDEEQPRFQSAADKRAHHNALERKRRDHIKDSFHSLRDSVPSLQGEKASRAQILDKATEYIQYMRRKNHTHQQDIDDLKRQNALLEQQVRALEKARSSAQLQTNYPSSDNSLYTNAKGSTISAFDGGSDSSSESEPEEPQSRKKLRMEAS

Row | Sequence | binding signal (normalized occupancy)
1 | AATCATGT | 0.0985
2 | AGCTATAC | 0.0735
3 | ATACGTTG | 0.0823
4 | ACTTTTGC | 0.0698
5 | ATGACAAT | 0.0768
6 | CAACCAGC | 0.0699
7 | CACCAAAA | 0.0711
8 | GGTCACGA | 0.0843
9 | CTGGTGGA | 0.0808
10 | TCCCCAGA | 0.0738
11 | ATTAGATA | 0.0818
12 | CTAATCCA | 0.0814
13 | ACTAGGCG | 0.0726
14 | CACGGGAA | 0.0786
15 | CGCTGTGA | 0.0742
16 | AACTCTGT | 0.0717
17 | CTGCATCC | 0.0733
18 | CCTCAGAG | 0.0685
19 | GCGGTTCA | 0.0753
20 | CGGTCGAC | 0.0709
21 | AAAGAAAA | 0.0698
22 | CCCTGTGC | 0.077

Row | Sequence | binding signal (normalized occupancy)
23 | CGATTTTA | 0.0735
24 | CTCTTGTA | 0.0733
25 | CCGTGTAC | 0.0796
26 | TGCCCTAA | 0.0763
27 | CGCTAGCC | 0.0702
28 | CGCACACC | 0.0877
29 | CGCTGCTC | 0.0761
30 | AACCATCG | 0.0792
31 | ACCGTCAT | 0.0743
32 | GAATAGTC | 0.0788
33 | AAGACGAC | 0.0749
34 | GATAGAAA | 0.0779
35 | GAGGCGGC | 0.0663
36 | TGGACACA | 0.0851
37 | AAGTTTCA | 0.0733
38 | AGATTTAG | 0.0713
39 | AAAAGTGT | 0.073
40 | CGGTGTGC | 0.0792
41 | AATTTCAT | 0.0775
42 | TCCTTGCA | 0.0754
43 | ATTACACA | 0.081
44 | CCAATGCG | 0.0793

Row | Sequence | binding signal (normalized occupancy)
45 | CTATCCAC | 0.0838
46 | CGAGAGTA | 0.0713
47 | GGGATAGA | 0.0815
48 | CCACTCAC | 0.0831
49 | GAGCATGA | 0.0963
50 | GATTCCCC | 0.0787
51 | AGGTGCTG | 0.0737
52 | GCCAGAGC | 0.0663
53 | CCGCGATA | 0.0783
54 | CTGAACCA | 0.0757
55 | CCGCCCAA | 0.0759
56 | TATTCAGA | 0.0792
57 | CTATAGCC | 0.0725
58 | CAAACATC | 0.0763
59 | CAGAATCA | 0.0789
60 | ATGATAAT | 0.0871
61 | CCTACAAC | 0.0784
62 | TTAACGAA | 0.0717
63 | GCGTAGAA | 0.0721
64 | CAGGTCCG | 0.0733
65 | ACTGGTCG | 0.0715
66 | ACATGTTG | 0.11

Row | Sequence | binding signal (normalized occupancy)
67 | GCCCAGCA | 0.0696
68 | GCGGAGAC | 0.0696
69 | CGTATTGC | 0.0742
70 | ATTCTGGC | 0.0753
71 | AAGTCGCG | 0.0742
72 | GAAAAGAA | 0.0746
73 | AGAAATGG | 0.077
74 | ATGGCATC | 0.0919
75 | GCCGCGAA | 0.0697
76 | GCTCAAGC | 0.0636
77 | CACACTAG | 0.0763
78 | AACTCTAT | 0.0766
79 | GAACGTTA | 0.074
80 | GTTGTATA | 0.0804
81 | ATACCTCG | 0.0787
82 | ACACTAAA | 0.0738
83 | GGTCCGAC | 0.0692
84 | AAGCCGTC | 0.0663
85 | GTCACCCA | 0.0789
86 | ATGGGCCA | 0.0769
87 | ATTAGAGC | 0.0771
88 | GACTGTAC | 0.0779

Row | Sequence | binding signal (normalized occupancy)
89 | TCACACAA | 0.086
90 | AGACTTAA | 0.0708
91 | ATGAGCAA | 0.0818
92 | ATAGTCCA | 0.0796
93 | ATCTTGGC | 0.0713
94 | CCGTCACC | 0.0754
95 | GGAACCAA | 0.0722
96 | ATAGGGCC | 0.0745
97 | ATCGTTCC | 0.0771
98 | CAGAGCTG | 0.0692
99 | CGTCGTAG | 0.0711
100 | TCCTCGAA | 0.0669
101 | ACTAACAT | 0.0807
102 | TACGCTCA | 0.0746
103 | CCGTCACA | 0.0754
104 | CTCGCAGC | 0.0662
105 | CTGTACCC | 0.0765
106 | CCCACGCA | 0.0903
107 | GCGAGAGA | 0.0775
108 | ACCGACAG | 0.0652
109 | ACAGTTTG | 0.0739
